Measurements reported in ChEMBL document CHEMBL5291721, “A preclinical secondary pharmacology resource illuminates target-adverse drug reaction associations of marketed drugs” (Nat Commun, 2023).

Legend:
D(1A) dopamine receptor [1] = molecular target: T1, D(1A) dopamine receptor (Homo sapiens, UniProt P21728)
D(1A) dopamine receptor [2] = molecular target: T1, D(1A) dopamine receptor; remark: listed apart in the source
[3] = molecular target: Voltage-gated inwardly rectifying potassium channel KCNH2 (Homo sapiens, UniProt Q12809); assay type: functional
Sequence of Voltage-gated inwardly rectifying potassium channel KCNH2 (Q12809 whole entry): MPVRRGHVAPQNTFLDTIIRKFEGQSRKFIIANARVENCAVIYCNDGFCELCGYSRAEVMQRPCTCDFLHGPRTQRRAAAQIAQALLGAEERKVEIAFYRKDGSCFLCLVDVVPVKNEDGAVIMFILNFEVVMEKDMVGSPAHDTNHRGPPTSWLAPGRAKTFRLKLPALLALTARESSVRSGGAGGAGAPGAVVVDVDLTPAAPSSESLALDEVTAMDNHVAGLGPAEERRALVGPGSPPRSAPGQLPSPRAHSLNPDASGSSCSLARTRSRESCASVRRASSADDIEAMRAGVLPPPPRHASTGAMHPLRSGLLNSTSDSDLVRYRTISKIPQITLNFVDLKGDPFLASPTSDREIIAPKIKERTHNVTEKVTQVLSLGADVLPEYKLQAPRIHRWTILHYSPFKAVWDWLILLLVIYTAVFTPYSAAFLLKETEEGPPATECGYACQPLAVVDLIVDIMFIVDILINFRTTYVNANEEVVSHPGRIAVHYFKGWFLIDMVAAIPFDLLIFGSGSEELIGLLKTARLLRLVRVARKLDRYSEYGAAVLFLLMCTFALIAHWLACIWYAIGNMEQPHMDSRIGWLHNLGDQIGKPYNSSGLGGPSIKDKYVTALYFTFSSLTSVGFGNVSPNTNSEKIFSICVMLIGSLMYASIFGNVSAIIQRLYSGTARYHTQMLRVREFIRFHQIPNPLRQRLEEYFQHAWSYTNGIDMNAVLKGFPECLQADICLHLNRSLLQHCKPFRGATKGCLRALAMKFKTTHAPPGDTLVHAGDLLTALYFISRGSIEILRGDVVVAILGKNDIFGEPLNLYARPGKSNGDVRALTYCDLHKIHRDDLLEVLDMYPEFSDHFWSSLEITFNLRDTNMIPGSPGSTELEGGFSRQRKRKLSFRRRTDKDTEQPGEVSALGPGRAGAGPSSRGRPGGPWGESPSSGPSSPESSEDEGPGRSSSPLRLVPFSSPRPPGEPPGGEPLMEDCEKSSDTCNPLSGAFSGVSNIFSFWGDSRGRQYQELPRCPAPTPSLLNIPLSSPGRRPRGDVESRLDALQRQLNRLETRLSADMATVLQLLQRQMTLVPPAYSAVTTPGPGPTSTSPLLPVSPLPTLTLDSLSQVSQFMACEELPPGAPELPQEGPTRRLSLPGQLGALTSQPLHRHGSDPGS
Further: assay procedure not described here.

T1 sequence (P21728 whole entry): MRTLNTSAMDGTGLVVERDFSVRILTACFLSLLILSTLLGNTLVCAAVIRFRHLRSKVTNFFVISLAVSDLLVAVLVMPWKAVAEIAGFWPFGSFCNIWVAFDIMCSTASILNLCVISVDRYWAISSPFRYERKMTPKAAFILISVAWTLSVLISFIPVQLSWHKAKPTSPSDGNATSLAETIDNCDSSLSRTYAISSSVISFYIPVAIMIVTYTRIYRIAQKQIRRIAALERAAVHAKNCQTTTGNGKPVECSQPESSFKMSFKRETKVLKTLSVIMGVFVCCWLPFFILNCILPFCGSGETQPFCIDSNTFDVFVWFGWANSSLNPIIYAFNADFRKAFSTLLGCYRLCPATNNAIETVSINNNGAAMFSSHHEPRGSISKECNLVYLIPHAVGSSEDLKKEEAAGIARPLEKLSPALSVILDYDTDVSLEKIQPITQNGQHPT

`CN(C)CCC=C1c2ccccc2COc2ccccc21` [DOXEPIN] showed an AC50 (D(1A) dopamine receptor [1]) of 301 nM, an AC50 (D(1A) dopamine receptor [2]) of 286 nM and an AC50 [3] of 4000 nM.
